The text below walks through data of the supplement of paper PMC11417369.

± gives the standard deviation of the averaged measurements. The list shows a part of the results.

This assay deals with PfAP2-EXP AP2 domain (GST-tagged). Nature of the assay: gcPBM binding intensity (ln(normalized median fluorescence intensity)); higher = stronger DNA binding. A digest of the protocol:
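Binding of GST-tagged P. falciparum DNA-binding domains, expressed in E. coli and used at about 25 μg on average, was carried out for 1 h in 1× PBS containing 1% milk, 0.2 mg/ml BSA, 0.5% salmon testes DNA and 0.03% Triton X-100. The target was an Agilent 4 × 180k array of primer-extended double-stranded 36-bp intergenic genomic probes plus negative controls, read with Alexa488 anti-GST antibody at 488 nm. Binding intensity is the highest Masliner-normalised natural-log median intensity across replicate spots of either probe orientation.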
On to “ATAATATATATTAAACGTACATAAAATAATTATGGA [XGTACX_site1670]”, for which the “gcPBM binding intensity (ln)” value turned out to be 8.63 ± 0.29.
In the case of “ATATATATATATCACCGTACTTATATAATAACATGA [XGTACX_site4398]” it was 9.95 ± 0.43.
In the case of “ACAGATATATTTATTTGTACATATCACCAAAATGGA [XGTACX_site5644]” it was 8.37 ± 0.36; in that of “ATTTTTATTAAAATATGTACGTATTTTACTCATACA [XGTACX_site5330]”, 8.68 ± 0.38; in that of “ATACAGAAAAAAAACACACACACATAATATACATAC [CACACA_site1933]”, 8.81 ± 0.52.
Under “ATAATATTCGAGTGTGCACACAAACATACATATATA [CACACA_site3396]” stands 9.1 ± 0.42; under “TTTTTTTTTTATTTTTGTACATATATTTCAGTATTA [XGTACX_site8396]”, 8.66 ± 0.47.
As to TAATTATTCTATTAAGTGCATATATTTTTAAAAAGA, the “gcPBM binding intensity (ln)” value turned out to be 8.41 ± 0.11.
In the case of “TTAATATAATAAAATCGTACAAATAAAATATAAAAT [XGTACX_site8730]” it was 8.79 ± 0.47.
Under “AACCAATATGAGTATACACACATAAATATAAATATA [CACACA_site5968]” stands 8.46 ± 0.42; under “AAAAAAAAAAAAGATACACACAAAAATGGATATATA [CACACA_site7069]”, 8.41 ± 0.5; under “TCTTTAAATCGAGTGTTAAATAATATAATATAAAAA [CACACA_negctrl_site1507]”, 8.23 ± 0.35.
Under “AAAAATGAGAAACACACACACATATATATATATATA [CACACA_site2228]” stands 10.1 ± 0.33; under “TAAGAATAATGACATAGTACAATTTAATAGATCTAA [XGTACX_site3670]”, 8.3 ± 0.61.
With “AAGTTTATTTGTTGCACACATATAAGTAGAGAAAAT [CACACA_site3027]”, the “gcPBM binding intensity (ln)” value turned out to be 8.81 ± 0.35.
In the case of “TTTTCAAAATAATATTATATCAAATGCTAAAAAGAA [TGCATGCA_negctrl_site588]” it was 8.56 ± 0.37; in that of “TTACGTTATATACATACACACCCACGCACAAAAAAA [CACACA_site6537]”, 9.02 ± 0.69.
In the case of “TACAGATATTATTGCACACATATAAAATACCCCCAA [CACACA_site6014]” it was 9.53 ± 0.33.
Under “ATTAAATACTTCGATTGTACAATTTTTTTTTTTTTT [XGTACX_site832]” stands 8.59 ± 0.59; under “CATATTTTTAAATACACACACATAAAAAAAAAAAAA [CACACA_site1095]”, 8.54 ± 0.46; under “TTTTTTTTAAAAAACACACACCTAAACAAGATATTT [CACACA_site6541]”, 8.55 ± 0.51.
On to “AAAAATATAAACTGCACACACACAAAAAAAGAAAAA [CACACA_site648]”, for which the “gcPBM binding intensity (ln)” value came to 8.64 ± 0.57.
Under “AAATAAAAAAGTAGTACACACTTCACGATATTTTTT [CACACA_site6015]” stands 8.54 ± 0.35.
Regarding TTATTATAATCATTAGTGCATATATTATTTTTATAT, the “gcPBM binding intensity (ln)” value was found to be 8.63 ± 0.092.
Under “TATATACATATATGTACACACATTACAGATGTACAT [CACACA_site966]” stands 8.93 ± 0.36.
In the case of “AATCTAATATAATGCACACATAAAAAAAAAATCAAA [CACACA_site2714]” it was 8.56 ± 0.23.
In the case of “TATATTTACAATAAAACGTTATTTTTTGTTATTTTC [CACACA_negctrl_site612]” it was 8.54 ± 0.38; in that of “GAAAAAAAAAAAAAAAAAAAAAGGAAAAAAGTGAAA [CACACA_negctrl_site996]”, 8.41 ± 0.66; in that of “ACGTTTACGTTATTATGTACGTAATATATCATACCT [XGTACX_site5006]”, 8.46 ± 0.4.
Consider “GAATAAATAGACGAGTGTACTTTTTTTTAAAAAAAA [XGTACX_site7880]”, for which the “gcPBM binding intensity (ln)” value came out at 8.78 ± 0.61.
In the case of “ATAAAACAATAAAATTGTACATAAATTGATTATACT [XGTACX_site6723]” it was 8.36 ± 0.45; in that of “AATTAAATTAGAAGCACACACATATTTATATTTATA [CACACA_site7552]”, 8.34 ± 0.45; in that of “GTATATATTTAAACACGTACACAAAACCCAAAAAAT [XGTACX_site8110]”, 9.19 ± 0.53.
Consider “ATACACTCACTCACACGTACAGACAACGGACGATCA [XGTACX_site1097]”, for which the “gcPBM binding intensity (ln)” value was found to be 8.88 ± 0.63.
Under “AAATATTTTTTTTCTACACACATACAAATATATATT [CACACA_site5325]” stands 8.76 ± 0.73.
In the case of “AATAATAACACCGTGGATACACAATAACAAAGAACT [CACACA_negctrl_site532]”, the “gcPBM binding intensity (ln)” value came to 9.11 ± 0.52.
In the case of “TTTCATTTAGCTTTTACACACTATATATCATTGATT [CACACA_site6158]” it was 8.88 ± 0.45.
For “TGAGAGTTCTCATATGCACACAAAAAACTTTCATTT [CACACA_site7898]”, the “gcPBM binding intensity (ln)” value is 8.41 ± 0.37.
Turning to “TACATATACATATACACACACACACCCAAATAAATA [CACACA_site1344]”, the “gcPBM binding intensity (ln)” value came to 8.86 ± 0.51.
In the case of “TTGCAACTCTTCAATCGTACACATTATTTATTATAT [XGTACX_site1377]” it was 8.87 ± 0.34.
Under “TATGTAAAAAATTTAACACACACATATATATATATA [CACACA_site8829]” stands 10.2 ± 0.38.
As for “ATCATAATCATAAAAAGTACAAACGATAAAATAAAT [XGTACX_site3832]”, the “gcPBM binding intensity (ln)” value was 9.01 ± 0.52.
In the case of “TTACTTAAGAAACACACACACAAAAAAAAAAAAAAA [CACACA_site946]” it was 8.2 ± 0.61; in that of “TTTTTTTCTGTGAGTGCATGTAATAAAATAAATTTA [TGCATGCA_site276]”, 8.84 ± 0.071; in that of “TTCAAAAATATATAATGTACACAAATATAAAAGAAT [XGTACX_site1944]”, 9.03 ± 0.29.
As for “TGTTATTTTAAAAAAAAAATTATTAACTTAAAAAAA [CACACA_negctrl_site1641]”, the “gcPBM binding intensity (ln)” value was 7.89 ± 0.44.
Regarding “TATTTATAATAGTGTACACAATTATAAACTGAATAT [CACACA_site6041]”, the “gcPBM binding intensity (ln)” value came to 8.76 ± 0.19.
In the case of “TATTATTGTCTTTCAAAAAAAAAAAAAAAAAAAAAA [CACACA_negctrl_site1242]” it was 7.83 ± 0.27.
Under “CAACATATATTAATATGTACATATATATAGATATAT [XGTACX_site4107]” stands 8.34 ± 0.23; under “TATTATTCATAATTTATCTTTTAAATTAAATCACAA [GTGCAC_negctrl_site288]”, 7.97 ± 0.45.
Under “TTATTCACTTCTTTTTAAAAAAAAAAAAAAAAAAAA [CACACA_negctrl_site223]” stands 7.89 ± 0.37; under “TTGTTAATGGTACGAACACACATATAAAGATGCATA [CACACA_site2044]”, 8.64 ± 0.54.
As to “ATAATTTGTGGACACACACACACACCGACATATATA [CACACA_site8718]”, the “gcPBM binding intensity (ln)” value came out at 8.81 ± 0.4.
Under “TTATATGAATTTTAGATTTATAATACAAGAATATTC [CACACA_negctrl_site70]” stands 8.01 ± 0.42.
In the case of “ATTTCGAATATTAAGTGTACAATATAAATATATAAA [XGTACX_site6674]”, the “gcPBM binding intensity (ln)” value amounted to 8.48 ± 0.34.
Under “AAAAAAAAAAAAAAAAGTACAAATAAAAAAAAAATA [XGTACX_site4814]” stands 8.55 ± 0.23; under “TACGTAGCCACACTAACACACACAAATATGCACAAT [CACACA_site8942]”, 8.8 ± 0.36.
As for “ATATTATATAATATACGTACATATATTATGCATAAA [XGTACX_site7895]”, the “gcPBM binding intensity (ln)” value was determined as 8.74 ± 0.39.
In the case of “ATTAAATACATTAACACACACACAAATATGTACATA [CACACA_site7372]” it was 8.77 ± 0.32.
In the case of “AATAGGAAAGATTTTGCATGTGATATAAGTAATTTT [TGCATGCA_site657]” it was 8.79 ± 0.28.
Under “TTTATATGATACACACGTACATATACACATATACAC [XGTACX_site8123]” stands 8.9 ± 0.3.
On to “TATATATATATTTTTGCACACATTTTTTAAGGTACA [CACACA_site2145]”, for which the “gcPBM binding intensity (ln)” value worked out at 9.82 ± 0.11.
Under “CATATAATAAATAGATGTACAGACTATATATATATA [XGTACX_site6575]” stands 9.96 ± 0.39.
Under “TATAATATTTATATAACACACATATAGATTTATTTA [CACACA_site6269]” stands 8.18 ± 0.4; under “TATATTAAAGGGGTTTCACACACATGTATAATTAAT [CACACA_site7950]”, 8.72 ± 0.42; under “TATTATTTAATCAAATGTACATAGAAAATGTATGTA [XGTACX_site4433]”, 8.38 ± 0.33.
“ATGTAAAATTAATATTGTACTTTTCCATCATGATAC [XGTACX_site2669]”: the “gcPBM binding intensity (ln)” value is 8.49 ± 0.4.
Under “ATAATATAACACAAATGTACAAAAAATAAATAAATA [XGTACX_site385]” stands 8.76 ± 0.4.
In the case of “AACAAACACAGACACACACACACACCCAAATGATTA [CACACA_site2431]” it was 8.59 ± 0.52; in that of “TATATATATACTTAATGTACATATATATATATATAT [XGTACX_site3102]”, 10.3 ± 0.2; in that of “CATACTCACCAACACACACACACACCCATATAGAAT [CACACA_site592]”, 8.7 ± 0.45.
In the case of “CACAGATAAATTAACACACACACACCCATATATATA [CACACA_site3960]” it was 8.84 ± 0.18; in that of “CTTTTTGAAATATTAACACACATTTTGTTAATTAAT [CACACA_site4046]”, 8.33 ± 0.34.
For the sequence CTATTTGGGGGAAGAGTGCATGACATGAATATAAAA, the “gcPBM binding intensity (ln)” value came to 9.39 ± 0.11.
Under “AAAAGGAAGATATATACACACATACAAATATATATA [CACACA_site5236]” stands 8.78 ± 0.49; under “TTTTTTTTTTTTTTCACACACTAATAATATTATCAT [CACACA_site4417]”, 8.53 ± 0.46; under “ATAAATTTTTAAAAATATGAATTATGTAATTTGTGA [CACACA_negctrl_site1621]”, 8.34 ± 0.36.
In the case of “ATTAGTATTAGATGATGTACATTTATATTGAAATAT [XGTACX_site8537]” it was 8.65 ± 0.38; in that of “TTGATGTATACAATGTAGATTATTTAATATTTCAAC [CACACA_negctrl_site73]”, 8.21 ± 0.38; in that of “CTATATTATAAATATACACACATATCTTAAGTATAA [CACACA_site3096]”, 8.27 ± 0.35.
For the sequence “GAAAACGTTTGAAGTTGTACATATGTATAAAAAGAA [XGTACX_site2304]”, the “gcPBM binding intensity (ln)” value was 9.16 ± 0.43.
In the case of “ATAAAAATACAGTTAACACACATGTGTATTTATATG [CACACA_site7727]” it was 8.82 ± 0.48; in that of “ATGGTCTGTTAAAGATGTACTTTTTAAAAATAAACG [XGTACX_site2583]”, 8.48 ± 0.25; in that of “TGTTATTTAAATAATTCTTTTTAAAAGATGAATTAT [CACACA_negctrl_site1226]”, 8.21 ± 0.56.
“TCTTTCTGCTCTTATACACACAAATAAAGATTTTTT [CACACA_site2700]”: the “gcPBM binding intensity (ln)” value was found to be 8.93 ± 0.31.
In the case of “TATATATATATATATATATATATATATATATATATT [CACACA_negctrl_site1440]” it was 10.1 ± 0.52; in that of “CATTGACCATTAATTTGTACACAAGGGGAAATGAGG [XGTACX_site1756]”, 8.74 ± 0.35.
Under “ATGAAATTTTCATATTGTACTATTAAAAATATATTT [XGTACX_site1989]” stands 8.27 ± 0.27.
